Reference: a collection of fitness landscapes (doi:10.1126/science.1257360)
This is one part of the list.

B1: PhoQ; a variant is named by its letters at X, in order, P23837 (parent)
chain: MKKLLRLFFPLSLRVRFLLATAAVVLVLSLAYGMVALIGYSVSFDKTTFRLLRGESNLFYTLAKWENNKLHVELPENIDKQSPTMTLIYDENGQLLWAQRDVPWLMKMIQPDWLKSNGFHEIEADVNDTSLLLSGDHSIQQQLQEVREDDDDAEMTHSVAVNVYPATSRMPKLTIVVVDTIPVELKSSYMVWSWFIYVLSANLLLVIPLLWVAAWWSLRPIEALAKEVRELEEHNRELLNPATTRELTSLVRNLNRLLKSERERYDKYRTTLTDLTHSLKTPLXXLQXXLRSLRSEKMSVSDAEPVMLEQISRISQQIGYYLHRASMRGGTLLSRELHPVAPLLDNLTSALNKVYQRKGVNISLDISPEISFVGEQNDFVEVMGNVLDNACKYCLEFVEISARQTDEHLYIVVEDDGPGIPLSKREVIFDRGQRVDTLRPGQGVGLAVAREITEQYEGKIVAGESMLGGARMEVIFGRQHSAPKDE

Variants of: B1
Experiment: enrichment ratio after two sorts for PhoP signalling (ratio (wild type AVST 3.29)); higher = more functional
Conditions: with PhoP (E. coli)

Variant	enrichment ratio
TGKC	≤ 0.25
YFLI	≤ 0.25
GYMF	≤ 0.25
LCQY	≤ 0.25
KQHI	≤ 0.25
FTER	≤ 0.25
HEPI	≤ 0.25
VTDW	≤ 0.25
YQFH	≤ 0.25
KDRR	≤ 0.25
PNRQ	≤ 0.25
ELLE	≤ 0.25
FCYY	≤ 0.25
VYYP	≤ 0.25
NEHK	≤ 0.25
MKQQ	≤ 0.25
EWCS	≤ 0.25
NMMS	≤ 0.25
EYGI	≤ 0.25
NVLT	≤ 0.25
ACCY	19.6
GTMR	≤ 0.25
VEFM	≤ 0.25
KRII	≤ 0.25
HSPW	≤ 0.25
HEGG	≤ 0.25

Variant	enrichment ratio
MAIE	≤ 0.25
FDLV	≤ 0.25
GNQS	≤ 0.25
FQRF	≤ 0.25
LKCQ	≤ 0.25
YNKV	≤ 0.25
ESFS	≤ 0.25
MQRS	≤ 0.25
SIVC	2.74
MNSL	4.59
GGCA	6.15
IYYR	≤ 0.25
PKNN	≤ 0.25
MLEC	≤ 0.25
IWPL	≤ 0.25
VVHI	≤ 0.25
MAYT	1.93
VQQR	≤ 0.25
VIIT	≤ 0.25
IEMF	≤ 0.25
VYHC	≤ 0.25
RTVR	≤ 0.25
LMQK	≤ 0.25
PWPT	≤ 0.25
NKIP	≤ 0.25
EESY	≤ 0.25

Variant	enrichment ratio
KPRV	≤ 0.25
DVWP	≤ 0.25
YYLM	≤ 0.25
QNRA	≤ 0.25
CFIY	≤ 0.25
RILI	≤ 0.25
NVTK	≤ 0.25
WVGM	≤ 0.25
KESL	≤ 0.25
ILRK	≤ 0.25
KGMH	≤ 0.25
TFIM	≤ 0.25
DRWW	≤ 0.25
CCPF	≤ 0.25
IIYR	≤ 0.25
TRRQ	≤ 0.25
NNPC	≤ 0.25
MYAE	≤ 0.25
VRSK	≤ 0.25
KLHM	≤ 0.25
MMCF	≤ 0.25
FYRV	≤ 0.25
EAFE	≤ 0.25
TGGC	11.2
LGPR	≤ 0.25
RPHF	≤ 0.25

Variant	enrichment ratio
TSQF	7.76
ADMG	≤ 0.25
GFDM	0.951
RATL	≤ 0.25
VYYE	≤ 0.25
AYDR	≤ 0.25
MSES	≤ 0.25
EGEL	≤ 0.25
FHSL	≤ 0.25
YFFN	≤ 0.25
RSRH	≤ 0.25
KYDV	≤ 0.25
EYRG	≤ 0.25
FLHA	≤ 0.25
NTPV	≤ 0.25
GGHI	≤ 0.25
QHIR	≤ 0.25
YMNN	≤ 0.25
PDTC	≤ 0.25
PTAK	≤ 0.25
VLER	≤ 0.25
QFIP	≤ 0.25
NDFA	≤ 0.25
IIML	≤ 0.25
VADR	≤ 0.25
KLDH	≤ 0.25

Variant	enrichment ratio
HGGD	≤ 0.25
WDMC	≤ 0.25
YSGW	≤ 0.25
PMAG	≤ 0.25
VMVW	≤ 0.25
LRTV	≤ 0.25
WYIL	≤ 0.25
HNIE	≤ 0.25
GKPN	≤ 0.25
RVQH	≤ 0.25
MIMR	≤ 0.25
RLPW	≤ 0.25
RVEE	≤ 0.25
FWLW	≤ 0.25
PTFV	≤ 0.25
FLWC	≤ 0.25
NKKF	≤ 0.25
YGLV	13.5
HYSK	≤ 0.25
YGEI	≤ 0.25
MPPF	≤ 0.25
PFVL	≤ 0.25
LIFT	≤ 0.25
HRIR	≤ 0.25
KVRT	≤ 0.25
ECPI	≤ 0.25

Variant	enrichment ratio
IANS	≤ 0.25
MFHH	≤ 0.25
DERC	≤ 0.25
IQPQ	≤ 0.25
GNMR	≤ 0.25
IKLH	≤ 0.25
TGST	15.2
FWPA	≤ 0.25
KNIC	≤ 0.25
DPAF	≤ 0.25
PRGN	≤ 0.25
YLFA	≤ 0.25
NMER	≤ 0.25
QIGC	3.56
TLMW	≤ 0.25
WTLF	≤ 0.25
SYLH	0.355
MSID	≤ 0.25
EAAT	≤ 0.25
PGSK	≤ 0.25
HQVT	≤ 0.25
SPIA	≤ 0.25
RRRY	≤ 0.25
